# Experimental data taken from PubChem BioAssay AID686978 (National Center for Advancing Translational Sciences (NCATS), 2013).
# Hit rate of the full screen: of about 420,000 compounds, about 64,000 (15%) were called active. The shares of active, inactive and inconclusive entries below differ from those in the screen. Calls come from the whole dose curve; as a rule, active = well fitted inhibition curve with a large enough effect; inconclusive = small, poorly fitted or top-dose-only effect; inactive = flat fitted curve, though single readings scatter. Potencies of inconclusive entries are left out as doubtful fits.
# Assay: qHTS for Inhibitors of human tyrosyl-DNA phosphodiesterase 1 (TDP1): qHTS in cells in absence of CPT; note: nearly all actives have a fitted effect of over 55% in size
# Settings: DT40 Tdp1-/- hTDP1 cells, no CPT, ATP luminescence, 48 h; activity change, negative = growth inhibition: at 46.2 µM (top of the series) unless noted
# How it was run: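 Chicken DT40 Tdp1-/- cells stably complemented with human TDP1 were seeded at 400 cells/well with DMSO in place of 20 nM camptothecin. After compound pinning, cells grew at least 48 hr at 37 °C; viability read by CellTiter-Glo luminescence.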
# % is set by controls: 0 for no effect and ±100 for the full control effect; potency is the fitted concentration of half-maximal effect; tags give direction and shape of the fitted curve.
SMILES,Potency,"activity change, negative = growth inhibition"
COc1cccc(-c2nc(SCC(=O)NC3CCCC3)c(-c3ccccc3)[nH]2)c1,"inconclusive [inhibitor, single point]",–
CC(=O)c1cccc(N(C(=O)CNC(=O)c2ccco2)C(C(=O)NCc2ccco2)c2ccccc2)c1 (stereo not drawn),inactive,–
CCC(=O)Nc1c2c(nn1-c1cccc(Cl)c1)CSC2,active: 0.731 µM,–
CCOC(=O)c1nnn(-c2nonc2NC(C)=O)c1C,inactive,–
Cc1ccc(-c2noc(CCCC(=O)NCc3ccco3)n2)cc1,active: 18.4 µM,–
CCOc1ccc(CCNC(=O)CSc2cc(=O)n(C)c3cc(Cl)ccc23)cc1OCC,"inconclusive [inhibitor, single point]",–
O=C(Nc1cccc(S(=O)(=O)N2CCOCC2)c1)c1cn(-c2ccccc2)nc1-c1ccc(F)cc1,"inconclusive [inhibitor, single point]",–
FC(F)(F)c1cccc(Oc2nc(-c3ccccc3)nnc2C(F)(F)F)c1,"inconclusive [inhibitor, partial curve, poor fit]",–
COc1ccc(NC(=O)CSc2nnc(CN3CCOCC3)n2-c2ccccc2)cc1Cl,inactive,–
COC(=O)CCCC1=CC2=C(c3ccccc3)C(=O)C(C)(OC(=O)C3CCCC3)C(=O)C2=CN1Cc1ccc(OC)cc1 (stereo not drawn),"inconclusive [inhibitor, single point]",–
CCOc1cc(C(=O)Nc2ccc([N+](=O)[O-])cn2)cc(OCC)c1OCC,"inconclusive [inhibitor, single point]",–
O=[N+]([O-])c1cccc(C2=NCCS2)c1,inactive,–
CCOc1ccc(NS(=O)(=O)c2ccc(C(=O)NC3CCC(O)CC3)cc2)cc1 (stereo not drawn),inactive,–
CC(C)CNC(=O)C1(C)CCCCCN1Cc1ccccc1-c1ccccc1 (stereo not drawn),"inconclusive [inhibitor, single point]",–
Cc1cc(C)cc(N=C2NC(=O)/C(=C/c3cccs3)S2)c1,active: 13 µM,–
O=C(CSc1nc(-c2cccs2)nc2cc(=O)[nH]n12)Nc1ccccc1F,inactive,–
CCOc1ccc(-c2nc(N)nc(C)c2-c2ccc(Cl)cc2)c(O)c1,"inconclusive [inhibitor, single point]",–
O=C1CCCc2cc(S(=O)(=O)N3CCC(C(=O)NCc4ccccc4)CC3)ccc2N1,"inconclusive [inhibitor, single point]",–
CCOc1ccc(CCNC(=O)CCc2c(C)nc3cc(-c4ccccc4OC)nn3c2C)cc1,active: 14.6 µM,–
COc1ccc(C)cc1-n1nnnc1SCc1cn2ccsc2n1,"inconclusive [inhibitor, partial curve]",–
Cc1ccc(F)cc1NC(=O)COC(=O)COc1ccc(C#N)cc1,–,inconclusive: -36.3% [inhibitor]
CSc1ccc(CCNC(=O)CN2C(=O)c3cccnc3Oc3ccc(Cl)cc32)cc1,"inconclusive [inhibitor, single point]",–

SMILES,Potency,"activity change, negative = growth inhibition"
Cc1cc(Nc2ccccc2)c2c([N+](=O)[O-])c(C)cc(C)c2n1,"inconclusive [inhibitor, single point]",–
Cc1c(-c2nsc(NC(=O)c3cccc(Cl)c3)n2)nnn1-c1ccccc1C(F)(F)F,"inconclusive [inhibitor, single point]",–
CCOC(=O)Cc1csc(NC(=O)Cc2ccc(Cl)cc2)n1,inactive,–
Cc1ccc(SCc2noc(C(=O)NC(C)C)c2C(=O)O)cc1C,"inconclusive [inhibitor, single point]",–
CSc1nc2c(c(=O)[nH]c(=O)n2C)n1Cc1ccc(Cl)cc1,"inconclusive [inhibitor, single point]",–
Cc1ccc(CS(=O)Cc2ccc(C(=O)NC3CCC(C)CC3)o2)cc1 (stereo not drawn),inactive,–
COc1ccccc1N1CCN(CC(O)COc2c(OC)cccc2OC)CC1 (stereo not drawn),"inconclusive [inhibitor, partial curve]",–
O=C(O)CCn1nnc(-c2ccccc2)n1,"inconclusive [inhibitor, single point]",–
CC(C)c1ccc(CC(=O)N2CCC2(C)C(=O)NS(=O)(=O)c2cccc(OC(F)F)c2)cc1 (stereo not drawn),inactive,–
COc1ccc(-c2cc(C(=O)NCC3CCCCC3)[nH]n2)c(C)c1,"inconclusive [inhibitor, single point]",–
CC(C)N1CCc2c(sc(NC(=O)c3ccc(S(=O)(=O)N4CCc5ccccc54)cc3)c2C(N)=O)C1,"inconclusive [inhibitor, single point]",–
N#Cc1c(N)n(Cc2ccccc2)c(=O)c2cc([N+](=O)[O-])ccc12,active: 18.4 µM,–
CCOC1=C2CN(S(=O)(=O)c3ccc(Cl)cc3)[C@H](c3ccccc3)C[C@@H]2N(S(=O)(=O)c2ccc(C)cc2)[C@H](c2ccccc2)C1,"inconclusive [inhibitor, partial curve]",–
O=S(=O)(c1ccc(Nc2ccc3c(c2)OCO3)nc1)N1CCOCC1,inactive,–
Cc1ccc(S(=O)(=O)Nc2ccc3c(c2)OCCO3)cc1,"inconclusive [inhibitor, single point]",–
Cn1c2ccccc2c2nnc(SCC(=O)Nc3cccc(O)c3)nc21,"inconclusive [inhibitor, single point]",–
COc1ccc(NC(=O)CC2C(=O)N(c3ccc(F)cc3)C(=S)N2NC(=O)c2ccc(Cl)cc2)cc1 (stereo not drawn),inactive,–
O=C(CN1CCN(S(=O)(=O)c2ccccc2)CC1)Nc1ccccc1C(=O)NC1CC1,"inconclusive [inhibitor, single point]",–
CN1CCN(Cn2cc(/C=C/C(=O)c3ccccc3)c3ccccc32)CC1,"inconclusive [inhibitor, partial curve, poor fit]",–
COc1cc(C(=O)N2CCc3c([nH]c4ccccc34)C2c2ccc(C)cc2)cc(OC)c1OC (stereo not drawn),"inconclusive [inhibitor, single point]",–
COc1ccc(/C=C2\SC(=S)N(CCC(=O)N3CCOCC3)C2=O)cc1,"inconclusive [inhibitor, single point]",–
